Measured values taken from PubChem BioAssay AID588342 (National Center for Advancing Translational Sciences (NCATS), 2011).
Out of some 360,000 compounds screened, about 25,000 (6.9%) were called active. The inconclusive results got no clear call from the source; some entries with a clear call stand among them for comparison. Calls come from the whole dose curve; as a rule, active = well fitted inhibition curve with a large enough effect; inconclusive = small, poorly fitted or top-dose-only effect; inactive = flat fitted curve, though single readings scatter. Potencies of inconclusive entries are doubtful fits and often do not repeat.
Note: nearly all actives have a fitted effect of over 55% in size.
Potency is the fitted concentration of half-maximal effect; tags give direction and shape of the fitted curve.
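Throughout, for activity change, negative = inhibition: plate controls were vehicle for no effect and reference inhibitor for full effect.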

What follows are compounds tested against Luciferin 4-monooxygenase (Photinus pyralis) (UniProt P08659) (assay: qHTS profiling assay for firefly luciferase inhibitor/activator using purifed enzyme and Km concentrations of substrates (counterscreen for miR-21 project)). Conditions: purified FLuc, luminescence inhibition; series mostly up to 57.5 µM; activity change, negative = inhibition: at the top concentration.
Chain of UniProt P08659 (P08659 whole entry, looked up): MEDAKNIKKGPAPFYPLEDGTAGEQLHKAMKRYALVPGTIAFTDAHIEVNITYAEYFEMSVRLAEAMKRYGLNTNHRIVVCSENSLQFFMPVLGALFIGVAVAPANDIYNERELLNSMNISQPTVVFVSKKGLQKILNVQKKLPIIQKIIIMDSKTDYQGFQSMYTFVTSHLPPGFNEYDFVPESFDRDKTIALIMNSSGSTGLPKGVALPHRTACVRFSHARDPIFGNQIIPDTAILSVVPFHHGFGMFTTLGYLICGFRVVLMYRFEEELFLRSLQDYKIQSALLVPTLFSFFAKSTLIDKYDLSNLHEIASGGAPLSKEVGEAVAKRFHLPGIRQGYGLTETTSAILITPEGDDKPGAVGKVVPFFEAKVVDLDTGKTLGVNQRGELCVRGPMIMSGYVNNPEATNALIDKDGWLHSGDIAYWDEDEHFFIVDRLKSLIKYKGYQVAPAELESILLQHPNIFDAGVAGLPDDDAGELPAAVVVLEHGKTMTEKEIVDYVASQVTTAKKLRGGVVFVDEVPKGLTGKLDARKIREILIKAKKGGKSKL
Outline: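 Purified P. pyralis luciferase, 10 nM final, with Km-level 10 uM D-luciferin and 10 uM ATP in 50 mM Tris acetate pH 7.5, 10 mM Mg acetate, 0.01% Tween-20, 0.05% BSA; 6-point qHTS titration about 60 µM downward; luminescence read.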
`CC1=CC(=O)c2c(O)ccc(O)c2C1=O` was tested, and the Potency was inconclusive: 23.9 µM [inhibitor, single point].
With `CCOc1ccc(Cc2nc(N)nc(N)n2)cc1` the “activity change, negative = inhibition” value was inactive: 2.31%.
For `O=C1/C(=C/c2ccncc2)SC(=S)N1Nc1ccccc1`, the Potency was inconclusive: 30.1 µM [inhibitor, partial curve, poor fit].
With `Cc1cccc(NC(=O)CSc2nc3ccccc3c3nc(CCn4cncc4C)nn23)c1` the “activity change, negative = inhibition” value was inactive: -2.24%.
In the case of `CCCc1ccc2oc(C(=O)N(C)Cc3ccn[nH]3)c(C)c2c1`, the Potency is reported as active: 15.1 µM.
`c1ccc(CSc2nc3ncccn3n2)cc1` was tested, and the Potency was inconclusive: 16.9 µM [inhibitor, partial curve].
`COC(=O)N/N=C/c1ccc(/C=N/NC(=O)OC)cc1` was tested, and the “activity change, negative = inhibition” value was inactive: -3.29%.
In the case of `COc1ccc(CN2CCN(C(=O)c3ccco3)CC2)cc1`, the “activity change, negative = inhibition” value is reported as inactive: -0.583%.
In the case of `C/C(=C/c1ccccc1)C(=O)N1CCN(c2ccccc2)CC1`, the “activity change, negative = inhibition” value is reported as inactive: -12.4%.
For `O=[N+]([O-])c1ccc2c(c1)nc1n2CCN(CC2CCCO2)C1` (centres undefined), the Potency was inconclusive: 26.9 µM [inhibitor, partial curve, poor fit].
In the case of `Cc1ccc(S(=O)(=O)NCC(=O)OCc2csc(-c3ccccc3)n2)cc1`, the Potency is reported as inconclusive: 37.9 µM [inhibitor, partial curve, poor fit].
With `O=C(O)CCNc1cc(N2CCN(C(=O)c3ccco3)CC2)c2noc3c2c1C(=O)c1ccccc1-3` the Potency was inconclusive: 37.9 µM [inhibitor, single point].
With `Cc1cccc(NC(=S)NNC(=O)c2csc(C(C)C)c2)c1` the Potency was active: 5.36 µM.
With `Cn1c(=O)c2c(nc(CN3CCN(c4ccc(F)cc4)CC3)n2Cc2ccccc2F)n(C)c1=O` the “activity change, negative = inhibition” value was inactive: -0.774%.
With `O=C(O)Cc1ccc(C(=O)c2ccc(F)cc2)s1` the Potency was inconclusive: 23.9 µM [inhibitor, partial curve, poor fit].
With `CC(=O)Nc1cc(C(=O)NCCN2CCN(Cc3ccccc3)CC2)ccc1Sc1ccc(C)cc1` the “activity change, negative = inhibition” value was inactive: -1.22%.
With `Cn1c(SCC(=O)Nc2ccc(NC(=O)c3ccccc3F)cc2)nnc1-c1ccncc1` the Potency was inconclusive: 6.75 µM [inhibitor, full curve].
With `CCCc1ccc2oc(C(=O)N3CCC(O)CC3)c(C)c2c1` the Potency was inconclusive: 26.9 µM [inhibitor, single point].
`O=C(Nc1ccc(Cl)cn1)c1ccc2c(Cl)c3c(nc2c1)CCC3` was tested, and the Potency was active: 0.19 µM.
With `COc1ccc(C)cc1S(=O)(=O)Nc1cccc(-c2ccc(N3CCCC3)nn2)c1` the Potency was inconclusive: 15.1 µM [inhibitor, partial curve].
In the case of `COc1cccc(-n2c(SCC(=O)Nc3sc4c(c3C(N)=O)CCC4)nc3ccccc3c2=O)c1`, the “activity change, negative = inhibition” value is reported as inactive: -13.4%.
With `COc1ccc(Br)cc1C(=O)Nc1ccc(O)cc1` the Potency was inconclusive: 37.9 µM [inhibitor, single point].
`CCOC(=O)c1ccc(NC(=O)CSCC(=O)OCC(=O)c2ccccc2)cc1` was tested, and the Potency was inconclusive: 19 µM [inhibitor, partial curve].
`O=C(N/N=C/c1sc(N2CCCCC2)nc1-c1cccs1)C1CC1` was tested, and the Potency was inconclusive: 26.9 µM [inhibitor, partial curve].
In the case of `Cc1cccc(Cc2nnc(CCC(=O)NCc3ccncc3C)o2)c1`, the Potency is reported as inconclusive: 19 µM [inhibitor, partial curve].
`COc1ccc(NC(=O)c2cccc(N3C(=O)NC4CC3(C)Oc3ccccc34)c2)cc1` (centres undefined) was tested, and the Potency was inconclusive: 26.9 µM [inhibitor, partial curve, poor fit].
For `O=C(COC(=O)/C=C/c1cccs1)Nc1cccc(S(=O)(=O)N2CCCC2)c1`, the Potency was inconclusive: 37.9 µM [inhibitor, partial curve, poor fit].
`COc1cc(C(=O)Nc2cccc(OCc3cc(=O)n4c(C)csc4n3)c2)cc(OC)c1OC` was tested, and the Potency was inconclusive: 13.5 µM [inhibitor, partial curve].
With `Cn1c(SCc2cccc(F)c2)nnc1-c1ccccn1` the Potency was inconclusive: 23.9 µM [inhibitor, partial curve, poor fit].
`Cc1cccc(NC(=O)CNC(=O)COC(=O)c2ccc(C(C)(C)C)cc2)c1C` was tested, and the Potency was inconclusive: 23.9 µM [inhibitor, partial curve, poor fit].
`COc1ccc(C(=O)COC(=O)c2cc(C)no2)c(OC)c1` was tested, and the “activity change, negative = inhibition” value was inactive: -3.05%.
`COc1ccc(S(=O)(=O)N2CCC(c3nnc(-c4ccccc4C)o3)CC2)c(OC)c1` was tested, and the Potency was inconclusive: 30.1 µM [inhibitor, partial curve, poor fit].
In the case of `O=C(c1cnc2nc3ccccc3n2c1)c1cc(F)ccc1O`, the Potency is reported as inconclusive: 26.9 µM [inhibitor, partial curve, poor fit].
With `CCOc1ncccc1C(=O)Nc1nc(SC)ns1` the Potency was inconclusive: 23.9 µM [inhibitor, single point].
For `Cc1csc2nc(-c3cccc(NC(=O)c4ccccc4F)c3)cn12`, the Potency was active: 6.75 µM.
`O=C(NCC(c1cccs1)N1CCOCC1)c1cc(-c2ccc(F)cc2)nc2ccccc12` (centres undefined) was tested, and the Potency was inconclusive: 21.3 µM [inhibitor, single point].
With `CSc1ccc(NC(=O)NCCN2CCc3ccccc3C2)cc1` the Potency was inconclusive: 30.1 µM [inhibitor, partial curve, poor fit].
`COc1ccccc1C(=O)Nc1cc(C)c(OCC(=O)N2CCOCC2)c(C)c1` was tested, and the Potency was inconclusive: 30.1 µM [inhibitor, single point].
For `COc1cc(-c2nc3cnccn3c2Nc2ccc(C(C)C)cc2)ccc1O`, the “activity change, negative = inhibition” value was inactive: -0.736%.
`COc1cc(/C=C(\C#N)C(=O)c2ccc(O)c(O)c2)cc(I)c1O` was tested, and the Potency was inconclusive: 37.9 µM [inhibitor, partial curve, poor fit].
`CCOC(=O)c1cc2c(=O)n3ccccc3nc2n(CC2CCCO2)c1=NC(=O)c1ccccc1F` (centres undefined) was tested, and the “activity change, negative = inhibition” value was inactive: -1.04%.
In the case of `COc1ccccc1-c1ccnc2c(-c3ccc(Br)cc3)c(C)nn12`, the “activity change, negative = inhibition” value is reported as inactive: -2.82%.
In the case of `COc1ccc([C@H]2[C@H](C(=O)OC(C)(C)C)N3N=Cc4ccccc4C3C23C(=O)c2ccccc2C3=O)c(OC)c1` (some centres undefined), the Potency is reported as inconclusive: 19 µM [inhibitor, partial curve, poor fit].
With `O=C(Nc1ccc(Cl)cc1)c1ccc(Br)cc1F` the Potency was active: 3.01 µM.
